In the supplement of paper PMC10477191:
± gives the standard deviation of the averaged measurements. The list shows a part of the results.

test system: Drosophila novamexicana; experiment: attraction index (odor vs solvent trap) (index (-1 to 1)); higher = more attraction to the odorant; conditions: test temperature 23 °C; odor dose: 10^-2 dilution in mineral oil
Experimental: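 Two-choice trap assay at 23 °C and 70% humidity. Starved adult flies (20 per box, 4-6 days old) chose between a trap with odorant (2 µl at 10^-2 in 200 µl mineral oil) and a solvent trap; counts were taken after 24 h.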

Compound | attraction index
CCCCCCO [1-hexanol] | 0.298 ± 0.36
CCCCCOC(C)=O [pentyl acetate] | -0.034 ± 0.38
COC(=O)c1ccccc1 [methyl benzoate] | -0.247 ± 0.32
COC(=O)c1ccccc1O [methyl salicylate] | 0.256 ± 0.21
C=CC(O)CCCCC (stereo not drawn) [1-octen-3-ol] | 0.104 ± 0.22
COc1ccccc1O [guaiacol] | -0.259 ± 0.23
CC(=O)C(C)O (stereo not drawn) [acetoin] | -0.0587 ± 0.35
CCCCCCOC(C)=O [hexyl acetate] | -0.539 ± 0.24
CC(=O)c1ccccc1 [acetophenone] | -0.201 ± 0.39
CCCCCC(C)=O [2-heptanone] | -0.212 ± 0.36
CC(=O)CCC=C(C)C [6-methyl-5-hepten-2-one] | -0.303 ± 0.36
CCCC(=O)OCc1ccccc1 [benzyl butyrate] | 0.313 ± 0.21
CCCCCC(=O)OCC [ethyl hexanoate] | 0.153 ± 0.36
CCOC(=O)C(C)O (stereo not drawn) [ethyl lactate] | -0.06 ± 0.36
COc1cccc(OC)c1O [2,6-dimethoxyphenol] | 0.0952 ± 0.26
CCOC(=O)CC(C)O (stereo not drawn) [ethyl 3-hydroxybutyrate] | 0.162 ± 0.32
CC(C)OC(=O)c1ccccc1 [isopropyl benzoate] | -0.119 ± 0.29
CC(=O)OC/C=C(\C)CCC=C(C)C [geranyl acetate] | -0.0819 ± 0.35
